In PubChem BioAssay AID624417 (National Center for Advancing Translational Sciences (NCATS), 2012):
The whole screen tested about 410,000 compounds, of which about 6,400 (1.6%) were called active. Inconclusive means that the source gave no clear call. Such entries were picked first, then a sample of the others. The call rests on the fitted dose curve; in most records, active means well fitted inhibition curve with a large enough effect; inconclusive means small, poorly fitted or top-dose-only effect; inactive means no such curve, though single readings can be large or run the other way. No potency is given beside an inconclusive call; the fits are too rough.
Further: nearly all actives have a fitted effect of over 55% in size.
On the % scale 0 is the no-effect control and ±100 the full control effect; potency means the concentration at half of the fitted maximal effect; tags describe the fitted curve by direction and shape.

What follows are molecules tested against Glucagon-like peptide 1 receptor (Homo sapiens) (UniProt P43220) (assay: qHTS of GLP-1 Receptor Inverse Agonists (Inhibition Mode)). Settings: HEK293 GLP-1R CRE-luciferase, luminescence, 24 h; Potency: GLP-1R form is constitutively active unless noted; activity change, negative = inhibition: at 38.3 µM (top of the series) unless noted.
UniProt P43220, sequence (P43220 whole entry, looked up): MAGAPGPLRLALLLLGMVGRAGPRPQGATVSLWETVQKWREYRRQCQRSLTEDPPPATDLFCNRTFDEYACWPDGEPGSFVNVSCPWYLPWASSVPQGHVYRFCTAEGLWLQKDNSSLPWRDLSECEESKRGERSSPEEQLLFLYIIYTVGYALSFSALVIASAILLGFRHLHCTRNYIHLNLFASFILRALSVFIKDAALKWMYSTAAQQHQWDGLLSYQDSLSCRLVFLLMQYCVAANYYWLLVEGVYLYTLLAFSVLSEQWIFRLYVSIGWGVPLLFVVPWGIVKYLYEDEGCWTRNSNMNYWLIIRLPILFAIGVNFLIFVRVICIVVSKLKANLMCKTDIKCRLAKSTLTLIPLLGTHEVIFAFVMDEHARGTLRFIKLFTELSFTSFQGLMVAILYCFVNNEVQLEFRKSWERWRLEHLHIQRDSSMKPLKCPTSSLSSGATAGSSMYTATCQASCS
Method in brief: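 Inverse agonists were sought by their lowering of basal cAMP reporter luciferase output in HEK293 cells stably carrying constitutively active human GLP-1R, after 24 h compound treatment.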
`Cc1ccc(OP(=O)(NCc2ccccc2)Oc2ccc(C)cc2)cc1` was tested, and the Potency was active: 7.08 µM [setting not given]. With `O=C1NC(=S)NC(=O)C1=Cc1cccc2cc3ccccc3cc12` the Potency was inconclusive [inhibitor, single point]. With `Cc1ccc(N2C(=O)NC(=O)/C(=C\C=C\c3ccco3)C2=O)cc1C` the Potency was inconclusive [inhibitor, single point]. In the case of `CC(C)CCCn1c(O)c(/C=C2/C=CC=N2)c(=O)[nH]c1=O`, the Potency is reported as inconclusive [inhibitor, partial curve, poor fit]. `CCOC(=O)[C@]12Cc3cc(Cl)ccc3[C@H]1N(Cc1ccccc1)C(=O)c1cc(OC)ccc12` was tested, and the Potency was inconclusive [inhibitor, partial curve]. In the case of `CCOC(=O)C1(c2ccccc2)CCN(CC(O)c2ccc(NC(C)=O)cc2)CC1` (stereo not given), the Potency is reported as inconclusive [inhibitor, full curve, poor fit]. With `O=C(Cc1ccc(Cl)c(Cl)c1)NCC1(N2CCOCC2)CCCCC1` the Potency was inconclusive [inhibitor, single point]. For `CN1CC(C(=O)c2ccc(Cl)cc2)C(c2ccccc2)C1` (stereo not given), the “activity change, negative = inhibition” value was inactive: -29%. In the case of `CC1CC(C)CN(S(=O)(=O)c2ccc3c(c2)oc(=O)n3CC(=O)N(C)Cc2ccccc2)C1` (stereo not given), the Potency is reported as inconclusive [inhibitor, partial curve]. For `CCC(Oc1ccccc1OC)C(=O)Nc1ccc2c(c1)OCCO2` (stereo not given), the Potency was inconclusive [inhibitor, single point]. With `O=C(NC1CCCCC1)N1Cc2cc(-c3ccccc3)ccc2-n2nncc2C1` the Potency was inconclusive [inhibitor, single point]. `COC(=O)C(=O)N1CC2(C)CNCC(C)(C1)C2=O` was tested, and the Potency was inconclusive [inhibitor, single point]. With `COc1cccc(-c2nnc3n(Cc4ccccc4Cl)c(=O)c4ccccc4n23)c1O` the Potency was inconclusive [inhibitor, partial curve, poor fit]. In the case of `O=c1[nH]c2ccccc2n1C1CCN(C(c2ccccc2)c2nnnn2-c2ccc3c(c2)OCCO3)CC1` (stereo not given), the Potency is reported as inconclusive [inhibitor, full curve]. With `CCn1c(O)c(N=Nc2ccc(S(=O)(=O)N3CCOCC3)cc2)c(=O)n(CC)c1=S` the Potency was inconclusive [inhibitor, partial curve, poor fit]. `Cc1ccc([C@H]2C[C@@H](O)[C@H](n3cc(COC(=O)c4ccccc4)nn3)CN2C(=O)C2CCCCC2)cc1` was tested, and the Potency was inconclusive [inhibitor, partial curve, poor fit]. `CCCCOC(=O)c1ccccc1C(=O)OCc1ccccc1` was tested, and the Potency was inconclusive [inhibitor, single point]. For `Cc1c(NS(=O)(=O)c2ccccc2)ccc([N+](=O)[O-])c1Cl`, the Potency was inconclusive [inhibitor, partial curve, poor fit]. In the case of `Cc1nn(Cc2ccc(Cl)cc2Cl)c(Cl)c1C(=O)NC1CCCc2ccccc21` (stereo not given), the Potency is reported as inconclusive [inhibitor, partial curve, poor fit]. `COc1ccc(Cn2c(N)c(C(=O)NCc3ccco3)c3nc4ccccc4nc32)cc1` was tested, and the Potency was inconclusive [inhibitor, partial curve, poor fit]. In the case of `Cc1cccc(N(CC(=O)NCCSc2ccc(Cl)cc2)S(=O)(=O)c2ccccc2)c1C`, the Potency is reported as active: 10 µM. For `Clc1ccc2c(N3CCNCC3)ccnc2c1`, the “activity change, negative = inhibition” value was inactive: -4.68%. `CC1CCOC(=O)C=CC=CC(=O)OC2CC3OC4C5OC5(C)C(O)CC4(COC(=O)C1O)C2(C)C31CO1` (stereo not given) was tested, and the “activity change, negative = inhibition” value was inactive: -71.8%. `O=S(=O)(c1ccc(Cl)cc1)N1CCN(C2CCN(Cc3ccccc3)CC2)CC1` was tested, and the Potency was inconclusive [inhibitor, partial curve, poor fit]. For `CC(C)CC(=O)NC(Oc1ccc(Cl)cc1)C(Cl)(Cl)Cl` (stereo not given), the Potency was inconclusive [inhibitor, partial curve, poor fit]. In the case of `CC(C)CCNC(=O)c1c(N)n(CC2CCCO2)c2nc3ccccc3nc12` (stereo not given), the Potency is reported as inconclusive [inhibitor, single point]. For `COc1cc(/C=C2/SC(=S)N(Cc3ccccc3)C2=O)ccc1OCC(=O)O`, the Potency was inconclusive [inhibitor, single point]. In the case of `COP(=O)(/C=C(\Cl)c1ccccc1)/C=C(\Cl)c1ccccc1`, the Potency is reported as inconclusive [inhibitor, single point]. In the case of `COc1ccccc1CN1CCCC(C(=O)c2ccccc2OC)C1` (stereo not given), the Potency is reported as inconclusive [inhibitor, single point]. For `CC[C@H](OC(C)=O)C(C[C@H](C)N(C)C)(c1ccccc1)c1ccccc1`, the Potency was inconclusive [inhibitor, partial curve, poor fit]. With `Cc1cc(-c2ccccc2)cc(C)[n+]1Cc1ccccc1` the Potency was inconclusive [inhibitor, partial curve]. With `CC(=O)c1ccc2c(c1)N(CCCN(C)C)c1ccccc1S2` the Potency was inconclusive [inhibitor, partial curve, poor fit]. In the case of `CCOC(=O)N1CCN(CC(O)COCCC23CC4CC(CC(C4)C2)C3)CC1` (stereo not given), the Potency is reported as inconclusive [inhibitor, partial curve, poor fit]. `Cc1cc(/C=C2\C(=O)NC(=O)N(C)C2=O)c(C)n1-c1ccc2c(c1)OCO2` was tested, and the Potency was inconclusive [inhibitor, single point]. `CC(C)(C)OC(=O)c1c(N)n(Cc2ccco2)c2nc3ccccc3nc12` was tested, and the Potency was inconclusive [inhibitor, single point]. In the case of `c1ccc(C2CN3CCC2CC3)cc1` (stereo not given), the “activity change, negative = inhibition” value is reported as inactive: -13.2%. With `Cc1cccc(OP(=O)(Oc2ccccc2)OC(c2ccccc2)C(F)(F)F)c1` (stereo not given) the Potency was inconclusive [inhibitor, partial curve, poor fit]. With `Cc1cc(OC(=O)N(C)C)nc(-c2ccc(C)c(Cl)c2)n1` the Potency was inconclusive [inhibitor, single point]. For `COC(=O)C1=C(c2ccc(F)cc2F)C[C@@H]2CC[C@H]1N2C(=O)NCCOc1ccccc1`, the Potency was inconclusive [inhibitor, partial curve, poor fit]. In the case of `COc1cc(CN2CCCC(C(=O)c3sccc3C)C2)cc(Cl)c1O` (stereo not given), the Potency is reported as inconclusive [inhibitor, partial curve, poor fit]. For `Cc1cccc(NC(=O)C(C)N2CC=C(c3ccccc3)CC2)c1` (stereo not given), the Potency was inconclusive [inhibitor, partial curve, poor fit]. In the case of `CCN(c1ccccc1)S(=O)(=O)c1ccc(C(=O)NCC(c2ccccc2OC)N2CCCC2)cc1` (stereo not given), the Potency is reported as inconclusive [inhibitor, single point]. `CC(C)CNP(=S)(c1ccccc1)C(C)(C)C` (stereo not given) was tested, and the Potency was inconclusive [inhibitor, single point]. With `CC(C)CCNC(=O)Cn1c(=O)oc2cc(S(=O)(=O)N3CCc4ccccc43)ccc21` the Potency was inconclusive [inhibitor, single point]. `O=C(NCC1=C(c2ccc3ccccc3c2)C[C@@H]2CC[C@H]1N2Cc1ccco1)c1ccc([N+](=O)[O-])cc1` was tested, and the Potency was inconclusive [inhibitor, partial curve, poor fit]. `CCOc1ccc(NC(=O)C2C(C(=O)O)C3(Cl)C(Cl)=C(Cl)C2(Cl)C3(Cl)Cl)cc1` (stereo not given) was tested, and the Potency was inconclusive [inhibitor, partial curve, poor fit]. `O=C(Nc1nc2ccccc2n1CCN1CCCC1)c1ccc(Cl)cc1` was tested, and the Potency was inconclusive [inhibitor, single point]. `O=C1NC(=O)C(=Cc2ccc(-c3ccc(Cl)cc3)o2)C(=O)N1` was tested, and the Potency was inconclusive [inhibitor, partial curve, poor fit]. For `COc1cc(Cn2c(N)c(C(=O)NCc3ccco3)c3nc4ccccc4nc32)cc(OC)c1OC`, the Potency was inconclusive [inhibitor, single point]. In the case of `CC(Cc1ccccc1Sc1ccccc1O)N(C)C` (stereo not given), the Potency is reported as active: 7.94 µM. In the case of `C[C@]12CC[C@H](O)C[C@@H]1CC[C@H]1[C@H]3CCC(=O)[C@@]3(C)CC[C@@H]12`, the “activity change, negative = inhibition” value is reported as inactive: 87.4%. In the case of `Cc1ccc2c(c1)C1CN(C)CCC1N2C(=O)c1cccs1` (stereo not given), the Potency is reported as inconclusive [inhibitor, partial curve, poor fit]. For `CN(C)C(=O)Nc1cccc(OC(=O)N(C)C)c1`, the “activity change, negative = inhibition” value was inactive: 0.144%. For `O=C(CCNS(=O)(=O)c1ccccc1)Nc1ccc(Cl)cc1C(=O)c1ccccc1`, the Potency was inconclusive [inhibitor, single point]. `O=C1C=CC(=O)C2C1C1(Cl)C(Cl)=C(Cl)C2(Cl)C1(Cl)Cl` (stereo not given) was tested, and the Potency was active: 3.16 µM [setting not given]. In the case of `O=C(NCc1ccc(C(=O)N2CCC3(CC2)OCCO3)cc1)c1cccc(Br)c1`, the “activity change, negative = inhibition” value is reported as inactive: 6.53%. In the case of `COc1ccccc1OC(=O)c1ccc(C)c(S(=O)(=O)N2CCOCC2)c1`, the Potency is reported as inconclusive [inhibitor, partial curve, poor fit]. `CC(C)COP(=O)(c1ccc(N(C)C)cc1)C(O)c1ccc(Br)cc1` (stereo not given) was tested, and the Potency was inconclusive [inhibitor, partial curve, poor fit]. For `CCN(CC)c1ccc(NC(=O)c2cccc(C)c2)cc1S(=O)(=O)Nc1ccccc1OC`, the Potency was inconclusive [inhibitor, full curve]. `COC(=O)C1=C(c2cc3ccccc3o2)C[C@@H]2CC[C@H]1N2C(=O)N1CCCC1` was tested, and the Potency was inconclusive [inhibitor, single point].
